Laboratory results from the supplement of paper PMC10126150.
Values marked as one replicate rest on one cluster of the flow cell; about a third of the high ones do not repeat.

Test system: ATP
Test: switch fluorescence ratio, 500 uM ATP over buffer (Cy3 cluster intensity, sum of 5 cycles each) (fold (ratio)); higher = stronger signal-on switching upon ATP binding; sequences stand for … in TCGTCGGCAGCGTCAGATGTGTATAAGAGACAGTTTTTTTTTTTTTTTTTTTTTTTTT…TC
Conditions: aptamer strand: ATP DNA aptamer (quencher-CACCTGGGGGAGTATTGCGGAGGAAGG + anchor), 100 nM annealed; ATP concentration: 500 uM; one replicate
In short: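 Between each of five buffer/ATP cycles, the flow-cell was stripped with NaOH and re-annealed. Each cycle imaged Cy3-labelled switching-strand clusters, annealed to 100 nM quencher-labelled ATP aptamer on a modified Illumina MiSeq flow-cell, first in selection buffer and then after 15 min with 500 uM ATP at 22 °C. The fluorescence ratio is summed target-cycle over summed buffer-cycle Cy3 intensity per cluster, averaged per switch-domain sequence, with clusters outside 100-1000 RFU excluded.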
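Also: ATP exposure 15 min at 22 °C before imaging.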

Sequence	switch fluorescence ratio
GGTTAGCGTA	0.896
GATATGACA	1.03
CCGGAGCGGG	2.9
CGTACCGCGC	1.45
AGTGTTGGA	1
TCGAACTTGT	1.09
TTGCGGCGGG	0.984
GTATTATGGT	0.921
ATTATGCTT	0.984
AGGTCTTGG	1.03
GAGCCTAGAT	1.17
CAATAGATAC	1.28
GGACTGTTGC	1.03
GTTTCAGGGT	0.984
AACTATAATC	1.02
GGTTGCGTAC	0.993
AGGCATTCTG	1.04
GTCGGGTATT	0.963
AAACCGTCCA	1.46
TATAAGGTTC	0.97
GACATACATC	1.27
CCGTAGGAGT	1.03
CAGATTCGGC	0.99
TTGGATGTTC	1.01
AATTTTATTA	1
TCGGTGAGTT	0.999

Sequence	switch fluorescence ratio
GGGTTTAGCT	1.01
TGCCCCTCTT	0.971
CTGCACAGAC	4.04
GAGGGATGAT	0.934
GGTCGGGGCT	0.973
CGAACCGACT	1.13
AGCCAGATAG	0.973
TCGGCACGGC	1.04
GAATTCTTCA	1.4
GTTCGCGCAT	1.13
GTGATCTCCG	1.13
GCGTCCAGGG	1.26
GACACGAAGC	1.06
GGGGTTTCAC	1.02
TATATTCGGT	0.999
GGAAGTTTAC	1.02
TTTGGGCCT	1.12
TGTCGGGAAT	1.05
GAGGTCAATC	1.13
GTAGACAGTC	0.946
TTATAATCGA	0.953
CTAGTAGCGG	0.965
ATATATCGG	0.965
CCGATGCGTC	1.99
CATATTGCGA	1.07
CGTTGAAAGG	1.03

Sequence	switch fluorescence ratio
CCCTAGTGTA	1.14
TTTAAGGTGC	1.51
TAGGATGAG	1.03
TGTTCGTTTG	0.965
TTAGGAAGAA	0.981
AAGTTTCTTG	0.955
GGTCGACCGC	0.931
AAGAGTCGAA	0.97
CCCGGGCTAG	1.06
TCGGAATGTA	0.994
TGGGGGACT	0.96
TCCGATTATT	1.04
AGTACGTGCC	0.981
ATCGGATGTG	0.905
CGGCTGAGG	0.975
GCTTGACCCG	1.01
GTTGCTGCAT	1.04
GCTCTCATAA	1.08
TATGGTGCGG	0.996
AAGGGCCGTA	0.956
CCAGCACCTG	1.04
AAACTATTGG	0.968
GGATATTCGT	0.999
CGACTCTATA	1.36
ATTCCGAGGA	0.994
AATAGAGGCG	0.98

Sequence	switch fluorescence ratio
ACATAATCAA	1.02
CTACCTGGGA	0.999
GATAGTCACG	1.02
CTATCGGCAC	1.16
GGTAGAGTTT	1.03
GCGTGCATCA	1.02
AAACATGTTC	0.991
GCGTGGATGA	1.03
GATCCTGCCA	1.04
TTGTGGCCGC	1.02
AATTCTTGTT	1.03
TCTGATACCG	0.997
CGCAAAAGAA	0.984
ACCGGTGCCT	1.05
TTATGGCCAG	0.986
ACTCGCGCG	0.993
TGTCACCCCC	1.79
CGATCATCTA	0.982
ACTAGTGTCG	1.07
CTGTGTAACG	0.946
TTACAGCTCA	0.983
GTAACTGGGG	0.997
AAAAGCCGGA	1.08
ATGTATGAAG	0.975
AAAACGTAAT	1.12
GTTCAGCATT	1.1

Sequence	switch fluorescence ratio
GGTAAGGCCC	1.02
CGATGTGGA	1.05
CTCAGTCTGT	1.05
GGTTACGTTC	1.02
TTTTGGCATT	1.03
GCATTGAAGA	0.994
TACCGTTATT	1.05
ACACGACTGC	1.08
TGCTTTGTGA	1.02
AACTTCCA	1.07
CGGGACTCT	1.01
ATGACTTGT	0.951
ATTGGCTTCC	2.59
CGGGATCGAT	0.967
ACTATTGTA	1.01
TTGTCGTTTA	1.02
GCAGCGTCAA	1.01
CGGATAGCGC	0.952
GGGTATGGAA	0.977
TAGGGTCAGT	0.988
GCTCGTTACC	0.968
CGTCCAGTTT	1.09
GGATATATCG	0.987
CAGGATTACT	0.997
CTGACAATT	1.12
GCATGCGCCC	1.26

Sequence	switch fluorescence ratio
CTGACAACAC	2.08
GGGCGTACTG	0.965
ACTAGGTGGC	1.14
TCTAGCTAGT	0.981
GAATAAGGGT	1
GCTTTCGCGC	1.03
AGGGAAGCGC	0.967
TCACCTATCT	1.01
CCTTATTGCG	0.992
AGGGTGCCTC	0.961
ACACGATTTA	1.04
AAGTTTATAC	1.04
TATTTACTCT	0.974
GGGAATAGAC	1.03
GGATCGAAGC	1.04
CCTTTTTTGC	1.45
CCGGATATTC	2.04
AATTTGGATC	1.04
CCTGGGGTA	0.995
ACTCGCGCCT	1.13
ACGTTGACAC	1.51
AACAGTATCT	1.06
ATTCCAATCC	1.06
CGACAGATCC	1.07
ATGCGGGTCT	0.989
CCAGTAACAG	0.979

Sequence	switch fluorescence ratio
TAGGAAG	1.01
TAGGACCACT	1.05
ACCAGGAATA	1
TCTACCCGAG	1.02
GGAGTGTCTC	0.97
GAATTCATCT	1
ATAACGATGG	1.04
TCGTTTAATA	1
TTTGTAACGT	0.992
GCTTAGCCTA	0.987
GACTGCTTT	0.981
ATGACTGACA	1.14
AAGTGCTGGT	0.975
GCCGTGATAA	1.33
GTTAACGCG	1
TTGCTCTT	1.03
TGGCTGAGGG	0.999
GAGATTAAC	1.01
TCAACGGG	1.04
CCTGTAATCA	1.02
CGTAGTATCC	1.09
GTGATCGCAT	0.946
AGACGGTGGT	0.986
ACGCCTTTTT	1.01
AGTCCGTGTG	1.02
GGCAGAAGTT	0.962

Sequence	switch fluorescence ratio
CGCAGCAGCC	3.45
GTCCTTGCAT	1.2
CAGATCGGTA	1.05
ACGAGAGAGT	1.04
TATTTTCGTT	1
TGCAACGCTC	1.08
CAGTTTGGAG	1.02
CGGTCATGTA	1.02
ATTTATCAC	1.03
TTAGGAGTTG	1.01
TTTCTGTTAT	0.967
TCGGTTGGCA	1.02
CGCAGATAGA	1.03
TCATCAGGGA	1.02
CCATATCTGT	1.01
TGTCGTTGT	0.978
GCGCTTTAAT	1.01
TCATAAAGCA	1.04
GGTATTTTGT	0.988
